Experimental data published in PMC5006159, “Structural basis for early-onset neurological disorders caused by mutations in human selenocysteine synthase” (Scientific Reports, 2016).
Residue numbers refer to the chain shown, from its start. These are yes or no findings as the source states them, for the method shown. Some results given as binding are weak or reduced against the parent protein; the word gives no strength. Blank lines part the entries; values can stand above or below the molecule they belong to.

Amino acid sequences for entries named in this document (tags omitted).
UniProt P0A6F5: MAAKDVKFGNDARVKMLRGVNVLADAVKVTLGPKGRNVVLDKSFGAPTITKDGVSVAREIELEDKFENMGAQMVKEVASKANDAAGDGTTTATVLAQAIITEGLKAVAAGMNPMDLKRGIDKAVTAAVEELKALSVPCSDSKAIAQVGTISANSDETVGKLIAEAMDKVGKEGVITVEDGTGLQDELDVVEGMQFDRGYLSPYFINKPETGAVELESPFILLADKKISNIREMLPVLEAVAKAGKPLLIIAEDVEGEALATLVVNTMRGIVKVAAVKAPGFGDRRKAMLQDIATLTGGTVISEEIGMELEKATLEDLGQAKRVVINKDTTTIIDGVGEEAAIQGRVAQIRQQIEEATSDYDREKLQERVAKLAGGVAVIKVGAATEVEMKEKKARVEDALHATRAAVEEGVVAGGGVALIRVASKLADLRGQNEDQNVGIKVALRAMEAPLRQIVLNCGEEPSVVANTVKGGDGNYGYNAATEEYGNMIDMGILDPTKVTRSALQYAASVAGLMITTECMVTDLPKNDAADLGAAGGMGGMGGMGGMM

Key:
[1] = biological target: T1, human O-phosphoseryl-tRNASec:selenocysteinyl-tRNASec synthase (SepSecS), wild type (human) (UniProt Q9HD40); test: native gel or EMSA; blue-native PAGE of the SEC peaks, Western blot with anti-GroEL and anti-His; complex with host GroEL (~720 kDa band) formed in the expression host
T1 sequence: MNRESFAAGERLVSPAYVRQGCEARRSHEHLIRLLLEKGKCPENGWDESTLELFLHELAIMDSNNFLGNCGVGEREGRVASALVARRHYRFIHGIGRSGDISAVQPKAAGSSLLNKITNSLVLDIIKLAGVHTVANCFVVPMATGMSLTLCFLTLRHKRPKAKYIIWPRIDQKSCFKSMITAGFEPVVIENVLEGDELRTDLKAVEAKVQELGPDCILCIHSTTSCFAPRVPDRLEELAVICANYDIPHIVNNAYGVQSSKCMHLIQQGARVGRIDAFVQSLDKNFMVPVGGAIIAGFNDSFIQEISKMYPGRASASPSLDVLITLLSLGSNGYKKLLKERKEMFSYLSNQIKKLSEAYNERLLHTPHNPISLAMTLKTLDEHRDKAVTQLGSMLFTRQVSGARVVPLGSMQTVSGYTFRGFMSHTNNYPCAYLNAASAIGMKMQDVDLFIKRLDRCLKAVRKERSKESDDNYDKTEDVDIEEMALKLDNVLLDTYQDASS

[2] = biological target: T2, human SepSecS Ala239Thr variant (human) (UniProt Q9HD40); test: as above
T2 sequence: T1 sequence with A239T

[3] = biological target: T3, human SepSecS Tyr334Cys variant (human) (UniProt Q9HD40); test: as above
T3 sequence: T1 sequence with Y334C

[4] = biological target: T1, human O-phosphoseryl-tRNASec:selenocysteinyl-tRNASec synthase (SepSecS), wild type (human); test: SEC; His-tagged SepSecS purified from the soluble fraction of E. coli and run on S200 SEC; peaks analysed by SDS-PAGE and Western blot with anti-His and anti-GroEL; GroEL of the host co-purified
[5] = biological target: T2, human SepSecS Ala239Thr variant (human); test: as above
[6] = biological target: T4, human SepSecS Thr325Ser variant (human) (UniProt Q9HD40); test: as above
T4 sequence: T1 sequence with T325S

[7] = biological target: T3, human SepSecS Tyr334Cys variant (human); test: as above
[8] = biological target: T2, human SepSecS Ala239Thr variant (human); test: SEC; S200 SEC of the soluble, purified His-tagged SepSecS samples; tetramer peak at ~70 min, 'early' peak at ~55 min; self-association; both purified
[9] = biological target: T2, human SepSecS Ala239Thr variant (human); test: native gel or EMSA; 6% blue-native Tris-glycine PAGE of the SEC peaks, Coomassie stain and anti-His blot; self-association (tetramer band between 242-480 kDa); both purified

- binding [1]: no binding
- binding [2]: binds
- binding [3]: binds
- binding [4]: no binding
- binding [5]: binds
- binding [6]: binds
- binding [7]: binds
Molecule: bacterial chaperonin GroEL (from UniProt P0A6F5 1-548)

- binding [8]: no binding
- binding [9]: no binding
B1: human SepSecS Ala239Thr variant (enzyme, UniProt Q9HD40 1-501)
chain: T1 sequence with A239T
